In all, about 360,000 compounds went through this assay and about 17,000 (4.7%) were called active. The inconclusive results got no clear call from the source; some entries with a clear call stand among them for comparison. Rule as the data show it: active = activity change below about -50%; inconclusive = mostly about -30% to -49%; inactive = weaker than that.
experiment: qHTS for Inhibitors of Inflammasome Signaling: IL-1-beta AlphaLISA Primary Screen; settings: THP-1 LPS/ATP IL-1B secretion, 16 h; at 57.5 µM, hits give low values
Procedure, shortened: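 Secreted IL-1B measured by AlphaLISA bead assay after 16 h compound exposure of THP-1 cells; compounds (final up to 57.5 uM) added 1 h before LPS (250 ng/mL) and ATP (1.25 mM) stimulation; lower signal means less secretion.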
% is scaled to controls: 0 for no effect and ±100 for the full control effect.

Row | Structure (SMILES) | activity change
1 | COc1ccc(S(=O)(=O)c2cnc3ccc(OC)cc3c2N2CCC3(CC2)OCCO3)cc1 | inconclusive: -37.9%
2 | CCNC(=O)C1(C)CCN1CCC(=O)c1ccc(C)cc1 (centres undefined) | inactive: 0%
3 | COc1ccc(OCCN(C)C(=O)c2cccc(S(=O)(=O)N(C)c3ccccc3)c2)cc1 | inconclusive: -37%
4 | CCOC(=O)C1CCN(S(=O)(=O)c2ccc(Cl)cc2)CC1 | inactive: -1.51%
5 | C#CCN1C(=O)C(O)(CC(=O)/C=C/C=C/c2ccccc2)c2ccccc21 (centres undefined) | inactive: -28.7%
6 | COc1cc(/C=C(\C#N)C(=O)NCC2CCCO2)ccc1OCC(=O)O (centres undefined) | inactive: -10.4%
7 | CCCCNC(=O)C(NC(=O)c1cnc(C)cn1)C(=O)c1ccccc1 (centres undefined) | inactive: -10%
8 | CCC(=O)Nc1c(S(=O)(=O)c2ccccc2)c2nc3ccccc3nc2n1Cc1ccccc1 | inconclusive: -30.2%
9 | CCN1CCN(c2ccc(NC(=O)c3cc4ccccc4cc3OC)cc2C)CC1 | active: -50.6%
10 | CN1C(=O)[C@H](Cc2ccc([N+](=O)[O-])cc2)NC1=S | inconclusive: -37%
11 | COc1cc(/C=C2/SC(=O)NC2=O)ccc1Oc1ccc([N+](=O)[O-])cc1[N+](=O)[O-] | inconclusive: -42.4%
12 | COc1ccc(-c2noc(C3CCCN(C(=O)c4ccccc4C)C3)n2)cc1 (centres undefined) | inconclusive: -31.3%
13 | Cc1noc(C)c1-c1ccc(C(=O)NCCC(F)(F)F)c2occc12 | inactive: 1.89%
14 | CC(c1ccccc1)N1C(=O)/C(=C/c2ccncc2)SC1=S (centres undefined) | active: -50.1%
15 | O=C(NC(c1ccccc1)c1ccc2ccccc2n1)C1CCN(Cc2ccc(Cl)c(Cl)c2)CC1 (centres undefined) | inconclusive: -42.9%
16 | O=C(Nc1cccc(F)c1)Nc1cccc(Cl)c1 | active: -88.1%
17 | NC(N)=NC(N)=Nc1ccccc1 | inconclusive: -46.3%
18 | Cc1ccc(S(=O)(=O)n2ccc3cccnc32)cc1 | inconclusive: -46.4%
19 | C/C(=N\NC(=O)c1ccc(F)cc1)c1cccc(NC(=O)c2ccco2)c1 | inconclusive: -34%
20 | COc1ccc(OC)c(/C=N/NC(=O)c2cc3c(OC)cc(OC)cc3[nH]2)c1 | inconclusive: -37.1%
21 | NNc1cccc(C=Cc2ccccc2)cc1=O | inactive: -13.4%
22 | Cc1ccc(-c2nnc(SCC(C)C)n2C)cc1 | inconclusive: -42.6%
23 | COc1ccc(/C=C2\SC(=S)N(CCC(=O)NC3C=CS(=O)(=O)C3)C2=O)cc1 (centres undefined) | inconclusive: -32.3%
24 | COc1ccc(S(=O)(=O)N(C)C[C@H]2Oc3ccc(NS(=O)(=O)c4ccccc4)cc3C(=O)N([C@H](C)CO)C[C@@H]2C)cc1 | inconclusive: -33.1%

Reference: PubChem BioAssay AID743279 (National Center for Advancing Translational Sciences (NCATS), 2014)
